PubChem BioAssay AID1476 (National Center for Advancing Translational Sciences (NCATS), 2009)
“And” between values parts separate entries of the source, which are not always exact repeats. Equal values may be shown once. About 4,500 (2.2%) of roughly 200,000 compounds were called active. The shares of active, inactive and inconclusive entries below differ from those in the screen. Calls follow the shape of the dose curve; as a rule, active = well fitted inhibition curve with a large enough effect; inconclusive = small, poorly fitted or top-dose-only effect, or effect the other way; inactive = flat fitted curve, though single readings scatter. Potencies beside an inconclusive call are fits to weak or partial responses and may not hold up.
Also: nearly all actives have a fitted effect of over 40% in size.
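For max response, negative = inhibition in this document: plate controls were enzyme without inhibitor for no effect and buffer without enzyme for full effect.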
Potency is read from the fitted curve at half-maximal effect; tags tell the direction and shape of the fitted curve.

Each compound was assayed against Cruzipain (Trypanosoma cruzi) (UniProt P25779) (assay: qHTS Assay for Promiscuous and Specific Inhibitors of Cruzain (without detergent)). Settings: purified cruzain, Z-FR-AMC fluorescence, no detergent.
Sequence of UniProt P25779 (P25779 whole entry, looked up): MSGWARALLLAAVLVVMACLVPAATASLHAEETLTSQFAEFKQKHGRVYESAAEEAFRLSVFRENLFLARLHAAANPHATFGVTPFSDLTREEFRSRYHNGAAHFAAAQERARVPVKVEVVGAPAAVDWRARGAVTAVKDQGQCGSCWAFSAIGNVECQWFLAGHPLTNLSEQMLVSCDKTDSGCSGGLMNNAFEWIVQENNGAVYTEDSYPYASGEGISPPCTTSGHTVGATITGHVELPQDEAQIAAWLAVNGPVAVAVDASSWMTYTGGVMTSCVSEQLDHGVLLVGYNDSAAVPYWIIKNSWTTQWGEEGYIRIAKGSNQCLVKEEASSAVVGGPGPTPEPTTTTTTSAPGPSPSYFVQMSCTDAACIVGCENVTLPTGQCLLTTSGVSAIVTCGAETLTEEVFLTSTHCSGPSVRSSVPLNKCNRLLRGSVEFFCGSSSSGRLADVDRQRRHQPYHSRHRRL
How it was run: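 Detergent-free condition (0.00005% Triton X-100) in acetate buffer pH 5.5 with DTT. 1.5 nM enzyme and compound were pre-mixed 15 min, then 2 uM Z-FR-AMC substrate added; reaction progress from fluorescence change between first and third reads (60 s).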
O=C(/C=C/c1ccc2c(c1)OCCCO2)c1ccc2ccccc2c1O was tested, and the Potency was inconclusive: 31.6 µM [inhibitor, single point].
For COCCn1nnnc1C(c1ccc(O)c(OC)c1)N1CCc2ccccc2C1 (centres undefined), the max response, negative = inhibition was inactive: 4.23%.
O=C(c1nc2nc(-c3cccs3)cc(C(F)(F)F)n2n1)N1CCN(Cc2ccccc2)CC1 was tested, and the Potency was inconclusive: 31.6 µM [inhibitor, single point].
With COc1ccc(NC(=S)NC2CCCCCC2)c(OC)c1 the max response, negative = inhibition was inactive: 13.6%.
COc1cc(/C=N/NC(=O)CC2(C)OCCCO2)ccc1OCc1ccc(Cl)cc1Cl was tested, and the Potency was inconclusive: 39.8 µM [activator, single point].
With CC(C)OCCCn1c(=NC(=O)c2ccncc2)c(C#N)cc2c(=O)n3ccccc3nc21 the Potency was inconclusive: 39.8 µM [inhibitor, single point].
With Cc1cccc(-n2c(O)c(C=NCc3cccnc3)c(=O)[nH]c2=O)c1C the max response, negative = inhibition was inactive: -6.67%.
With O=C(NC1CC(=O)N(c2ccc(F)cc2)C1)c1ccco1 (centres undefined) the max response, negative = inhibition was inactive: 6.42%.
CCOC(=O)c1cc2c(ccn2C)n1CC(=O)N1CCN(c2ccccc2OC)CC1 was tested, and the Potency was inconclusive: 39.8 µM [activator, single point].
Cc1ccc(-n2nnc3c(=O)n(Cc4cc(C)ccc4C)cnc32)cc1 was tested, and the Potency was inconclusive: 25.1 µM [inhibitor, single point].
With COc1cccc(N2CCN(C3CC(=O)N(c4ccc(C)c(Cl)c4)C3=O)CC2)c1 (centres undefined) the Potency was inconclusive: 39.8 µM [activator, single point].
With O=C(CN1C(=O)c2ccccc2C1=O)OC(C(=O)c1ccc(Cl)cc1)c1ccccc1 (centres undefined) the Potency was active: 31.6 µM.
CCOc1ccc(C2CC(=O)Nc3nc(SCc4ccccc4C)[nH]c(=O)c32)cc1OC (centres undefined) was tested, and the Potency was inconclusive: 7.94 µM [activator, single point].
In the case of CCn1c(SCC(=O)O)nnc1-c1cc2c(C)nn(-c3ccccc3)c2s1, the Potency is reported as inconclusive: 39.8 µM [activator, single point].
In the case of CC[C@@H]1C(c2ccccc2)=NN(c2ccc(Br)cc2)[C@H]1C(=O)N1CCOC1=O, the Potency is reported as active: 25.1 µM.
In the case of COC(=O)c1cc(NC(=O)c2ccccc2)c(=O)oc1C/C=N\OCc1ccc(Cl)cc1Cl, the Potency is reported as inconclusive: 7.94 µM [inhibitor, single point].
For Cc1ccc(C)c(NC(=O)n2ncc3cc(Cl)ccc32)c1, the max response, negative = inhibition was inactive: -1.43%.
In the case of COc1cc(C)nc(N2CCCC(C(=O)Nc3cccc(Cl)c3C)C2)n1 (centres undefined), the max response, negative = inhibition is reported as inactive: 16.9%.
For Cc1nc2ccccn2c(=O)c1NC(=O)c1ccc(F)c(F)c1, the max response, negative = inhibition was inactive: -13.3%.
Cc1cccc(NC(=O)C2CCCN2S(=O)(=O)c2ccc3nc(-c4ccccc4)[nH]c3c2)c1 (centres undefined) was tested, and the max response, negative = inhibition was inactive: 4.9%.
With COc1ccc(Br)cc1CNC(=O)c1cnc2sc(N3CCC(C)CC3)nn2c1=O the max response, negative = inhibition was inactive: -1.62%.
With Cc1ccc(C)c(N2CCN(S(=O)(=O)c3cc(C(=O)Nc4ccc(Oc5ccccc5)cc4)ccc3F)CC2)c1 the Potency was inconclusive: 39.8 µM [inhibitor, single point].
In the case of CN(C)c1ccc(N=Cc2nc(-c3ccccc3)oc2OC(=O)c2cccc(Cl)c2)cc1, the Potency is reported as active: 20 µM.
In the case of O=C(CSc1nc2ccccc2c(=O)n1Cc1ccc(F)cc1)NCc1cccs1, the Potency is reported as inconclusive: 39.8 µM [inhibitor, single point].
For CC1CCc2c(sc(N)c2C(N)=O)C1 (centres undefined), the Potency was inconclusive: 31.6 µM [inhibitor, single point].
With O=C(CCN1CCN(c2ccccc2F)CC1)c1ccc(Br)cc1 the Potency was inconclusive: 6.31 µM [inhibitor, partial curve].
With Cc1ccc(S(=O)(=O)c2nnn3c2nc(NCc2ccc4c(c2)OCO4)c2sccc23)cc1C the Potency was active: 25.1 µM.
With O=C(NCc1ccccc1)c1ccc(NC(=O)N2CC3CCCN3c3ccccc32)cc1 (centres undefined) the Potency was inconclusive: 39.8 µM [inhibitor, single point].
With O=C(OCC(=O)c1ccc(Cl)cc1Cl)c1ccc2c(c1)C(=O)N(c1cccc3ncccc13)C2=O the Potency was active: 20 µM.
Cn1c(=O)oc2cc(S(=O)(=O)CCC(=O)N3CCN(c4cccc(Cl)c4)CC3)ccc21 was tested, and the max response, negative = inhibition was inactive: 3.17%.
With N#C/C(=C\c1ccc(OC(=O)c2ccc(Cl)s2)cc1)c1nc2ccccc2[nH]1 the Potency was active: 3.98 µM.
With CCCN(CCC)c1ccc(C2N=C(N)Nc3nc4ccccc4n32)cc1 (centres undefined) the max response, negative = inhibition was inactive: -7.61%.
In the case of Cn1c(SCc2nnc(-c3ccccc3Br)o2)nc2sc3c(c2c1=O)CCC3, the Potency is reported as inconclusive: 31.6 µM [inhibitor, single point].
In the case of CCOc1cc(C(=O)Nc2ccc(-c3cn4cccnc4n3)cc2)cc(OCC)c1OCC, the Potency is reported as inconclusive: 25.1 µM [activator, single point].
Cc1cc(Nc2ccccc2C)n2nc(Cc3ccc(Cl)cc3)nc2n1 was tested, and the max response, negative = inhibition was inactive: -6.79%.
In the case of CCOC(=O)c1c(NC(=O)COC(=O)CNC(=O)c2ccco2)sc(C)c1C, the Potency is reported as inconclusive: 39.8 µM [activator, single point].
With CCC(C)(C)NC(=O)C(c1cccn1C)N(Cc1ccc(OC)cc1)C(=O)Cn1nnc2ccccc21 (centres undefined) the Potency was inconclusive: 10 µM [activator, partial curve].
With CC/C=C\C/C=C\C/C=C\CCCCCCCC(=O)O the Potency was inconclusive: 22.4 µM [activator, partial curve] and inconclusive: 15.8 µM [activator, full curve].
COc1cc2ncc3c(-c4ccc(C)cc4)nn(-c4ccc(F)cc4F)c3c2cc1OC was tested, and the max response, negative = inhibition was inactive: 10.6%.
For O=C(O)C1C2C=CC(C2)C1C(=O)N1CCN(C/C=C/c2ccccc2)CC1 (centres undefined), the max response, negative = inhibition was inactive: 3.09%.
For COc1ccc(-c2cn3nc(N4CCCC(C(=O)NCc5ccc(Cl)cc5)C4)sc3n2)cc1 (centres undefined), the max response, negative = inhibition was inactive: -1.83%.
COCCNC(=O)c1nn(-c2ccc(C)cc2)c(=O)c2c1c1ccccc1n2C was tested, and the max response, negative = inhibition was inactive: -5.54%.
CCn1c2ccccc2c2cc(NC(=O)CSc3nnc(-c4cccc(Cl)c4)o3)ccc21 was tested, and the Potency was active: 10 µM.
COc1ccc(-c2nc3sc(CCNC(=O)C(=O)Nc4cccc(NC(C)=O)c4)c(C)n3n2)cc1 was tested, and the max response, negative = inhibition was inactive: 2.99%.
